Assay results as given in patent publication US20100285487A1 (LUDWIG MAXIMILIANS UNIVERSITAT MUNCHEN, published 2010).

Molecular target: T1, XRCC1-LacI-RFP (UniProt P18887; P03023 1-360)
T1 construct: also called XRCC1-LacI-RFP bait construct
Experiment: F2H assay, BHK cells
Procedure: The lac repressor part of the XRCC1-LacI-RFP fusion protein mediates binding to the lac operator array (visible by fluorescence microscopy as red spot). DNA Ligase III is recruited to the lac operator array through interaction with XRCC1. […] Scale bars 5 μm. (b) Comparison of F2H results and co-immunoprecipitation (Co-IP) experiments. Co-IPs were performed with HEK 293T cells co-expressing RFP-XRCC1 and GFP-Ligase III or GFP-Ligase I, respectively. For interaction mapping the GFP-tagged BRCT domain of DNA Ligase III and a deletion construct lacking the BRCT domain were used. Immunoprecipitations were performed with a GFP-nanotrap (Rothbauer et al., 2007) (as shown before (Mortusewicz et al., 2006)). Precipitated fusion proteins were then detected with specific antibodies against RFP and GFP on western blots. RFP-XRCC1 was co-precipitated with GFP-Ligase III but not with GFP-Ligase I. RFP-XRCC1 was also co-precipitated with GFP-Ligase III BRCT but not with GFP-N-Ligase III ΔBRCT. For comparison of F2H results the input (left) and bound (right) bands from Co-IPs were aligned with corresponding signals from the F2H assay. […]
To test the F2H assay, the previously described interaction between the two DNA repair proteins DNA Ligase III and XRCC1 (Caldecott et al., 1994; Wei et al., 1995) was analyzed and the results were compared with data obtained from pull down assays. […]

Chain of XRCC1-LacI-RFP (P18887 other isoform, or with tags, fused parts or gaps limits assumed): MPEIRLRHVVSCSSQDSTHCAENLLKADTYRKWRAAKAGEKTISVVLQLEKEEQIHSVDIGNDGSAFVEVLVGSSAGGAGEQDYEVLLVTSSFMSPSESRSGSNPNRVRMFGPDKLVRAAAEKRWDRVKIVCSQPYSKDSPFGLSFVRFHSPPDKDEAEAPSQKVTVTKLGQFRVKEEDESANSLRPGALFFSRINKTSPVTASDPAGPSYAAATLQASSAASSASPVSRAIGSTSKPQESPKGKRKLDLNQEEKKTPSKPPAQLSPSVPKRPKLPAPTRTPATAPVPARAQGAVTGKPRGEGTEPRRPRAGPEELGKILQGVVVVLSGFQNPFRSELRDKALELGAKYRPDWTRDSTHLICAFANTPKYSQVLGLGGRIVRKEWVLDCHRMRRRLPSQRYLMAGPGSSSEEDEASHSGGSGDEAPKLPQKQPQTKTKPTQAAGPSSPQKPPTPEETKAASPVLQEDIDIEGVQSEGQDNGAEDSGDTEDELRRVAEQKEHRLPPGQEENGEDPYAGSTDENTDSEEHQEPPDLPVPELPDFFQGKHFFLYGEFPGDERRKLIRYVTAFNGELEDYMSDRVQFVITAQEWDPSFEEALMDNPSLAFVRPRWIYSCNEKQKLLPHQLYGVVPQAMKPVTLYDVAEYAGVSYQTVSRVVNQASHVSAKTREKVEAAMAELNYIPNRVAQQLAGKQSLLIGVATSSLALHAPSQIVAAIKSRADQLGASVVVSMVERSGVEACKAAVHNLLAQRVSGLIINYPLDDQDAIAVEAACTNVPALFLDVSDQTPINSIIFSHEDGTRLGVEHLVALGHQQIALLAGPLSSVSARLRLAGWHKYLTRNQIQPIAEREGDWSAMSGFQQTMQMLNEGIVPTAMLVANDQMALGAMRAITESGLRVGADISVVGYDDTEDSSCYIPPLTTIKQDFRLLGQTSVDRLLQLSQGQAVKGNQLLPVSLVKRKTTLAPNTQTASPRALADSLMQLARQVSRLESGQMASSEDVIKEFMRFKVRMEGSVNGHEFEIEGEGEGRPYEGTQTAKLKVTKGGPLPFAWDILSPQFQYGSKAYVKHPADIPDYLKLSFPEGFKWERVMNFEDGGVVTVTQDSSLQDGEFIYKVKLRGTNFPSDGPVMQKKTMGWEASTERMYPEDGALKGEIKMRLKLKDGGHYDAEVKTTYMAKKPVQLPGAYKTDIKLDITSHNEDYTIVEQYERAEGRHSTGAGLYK

B1: GFP-tagged DNA Ligase I (other, not shown: large carriers; small tags and cut ends)
chain: [gap - about 250 residues]PSGYNPAKNNYHPVEDACWKPGQKVPYLAVARTFEKIEEVSARLRMVETLSNLLRSVVALSPPDLLPVLYLSLNHLGPPQQGLELGVGDGVLLKAVAQATGRQLESVRAEAAEKGDVGLVAENSRSTQRLMLPPPPLTASGVFSKFRDIARLTGSASTAKKIDIIKGLFVACRHSEARFIARSLSGRLRLGLAEQSVLAALSQAVSLTPPGQEFPPAMVDAGKGKTAEARKTWLEEQGMILKQTFCEVPDLDRIIPVLLEHGLERLPEHCKLSPGIPLKPMLAHPTRGISEVLKRFEEAAFTCEYKYDGQRAQIHALEGGEVKIFSRNQEDNTGKYPDIISRIPKIKLPSVTSFILDTEAVAWDREKKQIQPFQVLTTRKRKEVDASEIQVQVCLYAFDLIYLNGESLVREPLSRRRQLLRENFVETEGEFVFATSLDTKDIEQIAEFLEQSVKDSCEGLMVKTLDVDATYEIAKRSHNWLKLKKDYLDGVGDTLDLVVIGAYLGRGKRAGRYGGFLLASYDEDSEELQAICKLGTGFSDEELEEHHQSLKALVLPSPRPYVRIDGAVIPDHWLDPSAVWEVKCADLSLSPIYPAARGLVDSDKGISLRFPRFIRVREDKQPEQATTSAQVACLYRKQSQIQNQQGEDSGSDPEDTY
notes: also called GFP-Ligase I
Q: Does B1 bind?
A: no binding
